Data from PubChem BioAssay AID485281 (National Center for Advancing Translational Sciences (NCATS), 2010).
About 260 (0.074%) of roughly 350,000 compounds were called active. The shares of active, inactive and inconclusive entries below differ from those in the screen. Calls follow the shape of the dose curve; as a rule, active = well fitted inhibition curve with a large enough effect; inconclusive = small, poorly fitted or top-dose-only effect; inactive = no such curve, though single readings can be large or run the other way. Potencies of inconclusive entries are doubtful fits and often do not repeat.

Biological target: Ferritin light chain (Equus caballus) (UniProt P02791)
Test: qHTS Assay for Identification of Novel General Anesthetics; also: nearly all actives have a fitted effect of over 20% in size
Conditions: apoferritin/1-aminoanthracene competitive binding, fluorescence; activity change, negative = displacement: at 77.5 µM (top of the series)
Procedure, shortened: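 Probe: 1-aminoanthracene (50% saturated, PBS). Protein: horse-spleen apoferritin, 10 uM. Incubation: 10 min, room temperature. Detection: 380 nm excitation, 535 nm emission. Analysis: normalized response, four-parameter Hill.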
% is scaled to controls: 0 for no effect and ±100 for the full control effect; potency is read from the fitted curve at half-maximal effect; tags tell the direction and shape of the fitted curve.

Chain of UniProt P02791 (P02791 whole entry, looked up): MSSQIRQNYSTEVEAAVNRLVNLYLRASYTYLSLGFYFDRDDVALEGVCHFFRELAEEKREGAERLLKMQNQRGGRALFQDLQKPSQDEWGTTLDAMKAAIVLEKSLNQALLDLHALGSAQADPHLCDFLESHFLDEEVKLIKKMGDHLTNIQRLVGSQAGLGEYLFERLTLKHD

Potency, inactive:
CCCCN(CC)C(=O)CSc1nc2n[nH]c(C)c2c(=N)n1-c1cccc(C)c1

Potency, inconclusive:
NS(=O)(=O)c1cccc(NC(=S)NC(=O)C23CC4CC(CC(C4)C2)C3)c1 28.2 µM [inhibitor, partial curve], CC(C)Nc1ccc(-c2nc(-c3ccncc3)no2)cc1[N+](=O)[O-] 17.8 µM [inhibitor, partial curve], COc1ccc(C2=C(Nc3ccc(Br)c(C)c3)c3ccccc3C2=O)cc1 14.1 µM [inhibitor, partial curve], CCC(C)[C@H](NC(=O)[C@@H]1CSC2c3ccccc3C(=O)N21)C(=O)N1CCCCC1 (some centres undefined) 31.6 µM [inhibitor, single point], NNC(=S)NC1CCCCC1 22.4 µM [inhibitor, partial curve], COc1cccc(CNC(=O)CSc2ccc(-c3cccs3)nn2)c1 25.1 µM [inhibitor, single point], CCOC(=O)CCCNC(=O)COC(=O)c1cc2ccccc2cc1O 20 µM [inhibitor, partial curve], Cn1c(=O)oc2cc(S(=O)(=O)Nc3cccc4c3CCCC4)ccc21 25.1 µM [inhibitor, partial curve], OC(C#CCN1CCOCC1)c1cccs1 (centres undefined) 0.794 µM [inhibitor, full curve, poor fit], Cc1ccc(C2(C(F)(F)F)NC(=O)N3CCCN=C3S2)cc1 (centres undefined) 17.8 µM [inhibitor, partial curve], Cc1cc(O)c(N)c(C)c1Cl 35.5 µM [inhibitor, single point], Cc1ccc(CN(CC(=O)N/N=C/c2ccccc2[N+](=O)[O-])S(=O)(=O)c2ccc(C)cc2)cc1 28.2 µM [inhibitor, partial curve], Cc1ccc(NC(=O)CCc2c(C)nn(-c3ccc(N4CCOCC4)nn3)c2C)c(C)c1 25.1 µM [inhibitor, partial curve], CSc1cccc(NC(=O)c2nnn(Cc3ccccc3)c2N)c1 6.31 µM [inhibitor, full curve], CCOc1ccc(NC2SC(=O)N(Cc3ccccc3)C2=O)cc1 (centres undefined) 28.2 µM [inhibitor, partial curve], COC(=O)c1cccnc1-n1c(=O)c2cccnc2n(Cc2cccc(C(F)(F)F)c2)c1=O 28.2 µM [inhibitor, partial curve], CC(C(=O)Nc1ccccc1-c1ccccc1)N1CCCCC1 (centres undefined) 28.2 µM [inhibitor, partial curve], O=C(O)c1ccccc1C(=O)N1N=C(c2ccccc2)CC1c1ccccc1O (centres undefined) 25.1 µM [inhibitor, single point], O=C(CN1C(=O)S/C(=C\c2cccs2)C1=O)Nc1ccc(O)c(C(=O)O)c1 28.2 µM [inhibitor, single point], O=C(c1cccs1)N1CCN=C1SCc1ccc(Cl)cc1 25.1 µM [inhibitor, partial curve], O=C(Nc1ccc(N2CCCC2)c(Cl)c1)c1ccco1 50.1 µM [inhibitor, single point], CCCOC(=O)C(C)n1nnc2sc(-c3ccccc3)cc2c1=O (centres undefined) 50.1 µM [inhibitor, partial curve, poor fit], CC(=O)Nc1ccc(Nc2ccc([N+](=O)[O-])cn2)cc1 15.8 µM [inhibitor, partial curve], CCOC(=O)c1c(C)[nH]c(N=Nc2cccc(OC)c2)c1C 35.5 µM [inhibitor, partial curve], CC[C@@H](C)[C@H](NS(=O)(=O)c1cccc2ccccc12)C(=O)N[C@H](C=O)Cc1c[nH]c2ccccc12 3.16 µM [inhibitor, full curve, poor fit], CCOc1cc2c(C#N)c(N3CCCCC3)nc(N)c2c(N)n1 12.6 µM [inhibitor, partial curve], Cc1sc(N)c(C(=O)c2ccccc2Cl)c1C 22.4 µM [inhibitor, partial curve], O=[N+]([O-])c1cccc(NC(=S)Nc2nc(-c3ccc(Cl)cc3Cl)cs2)c1 56.2 µM [inhibitor, single point], COc1ccc(OC)c(C(=O)NC(CC(N)=O)c2ccc(NCC3CC3)c([N+](=O)[O-])c2)c1 (centres undefined) 14.1 µM [inhibitor, partial curve], CCOC(=O)c1c(NC(=O)C(F)(OC)C(F)(F)F)sc(C(=O)N2CCCCC2)c1C (centres undefined) 28.2 µM [inhibitor, partial curve], COc1ccc(Cn2ccnc2SCC(=O)NC2CCCCC2)cc1 15.8 µM [inhibitor, partial curve], O=C(Nc1nnc(SCc2ccc(Cl)cc2)s1)C1CCCO1 (centres undefined) 39.8 µM [inhibitor, partial curve], CCOC(=O)c1c(C)nc(SC)c(C#N)c1-c1ccccc1 17.8 µM [inhibitor, partial curve]

Activity change, negative = displacement, inactive:
CCc1ccc2nc(NC(=O)Cn3cnc4ccccc4c3=O)sc2c1 -2.6%, CCC(C)Oc1cc(-c2ccnc(Nc3cccc(Cl)c3)n2)ccn1 (centres undefined) -2.66%, COc1cccc2c1cc1c(=O)n(CC(=O)N3CCN(c4cccc(C(F)(F)F)c4)CC3)nc(C)n12 0.35%, O=C(O)Cn1c(-c2cccs2)cc2cc(Cl)ccc21 -5.61%, O=C(Nc1nccs1)c1ccc(S(=O)(=O)NCc2cccs2)cc1 -23.4%, O=C(Nc1nccs1)c1ccc(Br)s1 -0.602%, CCOc1cc(/C=C2\C(=O)ON=C2c2ccccc2)cc(Br)c1O -3.99%, Cc1ccc[n+](CC(=O)N2CCCCC2)c1C 4.26%, Cc1cc(C)cc(Nc2ncc3c(n2)CC(c2ccco2)CC3=O)c1 (centres undefined) -17.8%, CC(=O)c1sc(NC(=O)C=C(C)C)nc1C 2.12%
